Laboratory results: patent US20220411494A1 (ALAMAB THERAPEUTICS, published 2022)

What was measured:
FcγRIIa = molecular target: T1, FcγRIIa (UniProt P12318 36-218, limits assumed); assay: SPR Biacore 8K, His-captured receptor, antibody as analyte, steady state affinity
T1 construct: It was captured through an anti-His tag antibody; The construct is not described; also called FCRIIa
T1 sequence (looked up): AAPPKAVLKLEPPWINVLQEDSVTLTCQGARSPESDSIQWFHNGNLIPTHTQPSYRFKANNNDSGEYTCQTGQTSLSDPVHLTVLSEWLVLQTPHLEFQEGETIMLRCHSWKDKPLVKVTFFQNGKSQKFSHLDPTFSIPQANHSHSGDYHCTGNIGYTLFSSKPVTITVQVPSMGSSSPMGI
Experimental: (§1) The activator was prepared by mixing 400 mM EDC and 100 mM NHS immediately prior to injection. The CM5 sensor chip was activated for 420 s with the mixture. 30 μg/mL of THE™ His tag antibody in 10 mM NaAc (pH 4.5) was then injected to channels 1-8 for 400 s at a flow rate of 30 μL/min. The chip was deactivated by 1 M ethanolamine-HCl (GE).
(§2) 1 μg/mL FcγRIIa, FcγRIIb, FcγRIIIa, or FcγRIIIb in running buffer (1×HBS-EP+) was injected to Fc2 of channel 1-8 at a flow rate of 10 μL/min for 15 s. Analytes were injected to channel 1-8 respectively. A series of analyte concentrations (seeing Table 3 below) were monitored at a flow rate of 30 μL/min for an association phase of 60 s, followed by 90 s dissociation. 10 mM glycine pH 1.5 as regeneration buffer was injected following every dissociation phase.
(§3) Surface channels Fc1 without capturing ligand was used as control surface for reference subtraction. Final data of each interaction was deducted from reference channel and buffer channel data. The experimental data of antibodies binding to FcγRIIa, FcγRIIb, FcγRIIIa, and FcγRIIIb was fitted by steady state affinity mode and shown in Table 4 below.

FcγRIIb = molecular target: T2, FcγRIIb (UniProt P31994 46-217, limits assumed); assay: as above
T2 construct: It was captured through an anti-His tag antibody; The construct is not described; also called FCRIIb
T2 sequence (looked up): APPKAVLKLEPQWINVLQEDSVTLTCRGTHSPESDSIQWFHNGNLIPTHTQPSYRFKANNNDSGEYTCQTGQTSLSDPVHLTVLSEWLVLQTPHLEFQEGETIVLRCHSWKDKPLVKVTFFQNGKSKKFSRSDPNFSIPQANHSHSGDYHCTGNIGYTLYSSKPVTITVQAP
Experimental: as §1, §2, §3

C1q = C1q (UniProt P02745; P02746; P02747); assay: ELISA, antibody coated at 3 µg/mL, C1q titrated
Experimental: Plates (Nunc) were coated with antibodies at 3 μg/mL overnight at 4° C. After blocking and washing, C1q was half-log titrated in blocking buffer (600, 189.75, 60.01, 18.98, 6.00, 1.90, 0.60, 0.19, 0.06 and 0.02 μg/mL) and incubated at room temperature for 2 h. The plates were then washed and subsequently incubated with secondary antibody Sheep anti-human C1q Ab-HRP for 1 h. After washing, TMB substrate was added and the interaction was stopped by 2M HCl.

human FcRn = molecular target: T3, human FcRn (human, UniProt P55899 partial chain; P61769 partial chain); assay: SPR Biacore 8K, antibody immobilised on CM5, FcRn as analyte, pH 6.0, steady state affinity
T3 construct: The construct is not described
Experimental: Buffer of human FcRn was exchanged to running buffer (50 mM Na₂HPO₄, 50 mM NaH₂PO₄, 150 mM NaCl, 0.05% Tween20, pH 6.0) using desalting column according to the instruction manual. The concentration was determined by Nanodrop.
Analyte FcRn was injected to channel 1-8 respectively. 8 concentrations of FcRn (0, 93.75, 187.5, 375, 750, 1500, 3000 and 6000 nM) were monitored at a flow rate of 30 μL/min for an association phase of 60 s, followed by 90 s dissociation. After each cycle of interaction analysis, the sensor chip surface was regenerated with 1×PBS (pH 7.4) at a flow rate of 10 μL/min for 30 s.
Surface channels Fc1 without immobilized antibodies were used as control surface for reference subtraction. Final data of each interaction was deducted from reference channel and buffer channel data.

CD64 [1] = molecular target: T4, CD64 (UniProt P12314 16-288, limits assumed); assay: SPR Biacore 8K, CD64 captured by anti-His antibody, antibody as analyte, 1:1 binding fit
T4 construct: The construct is not described; also called FCRI
Experimental: as §1
(§4) 2 μg/mL CD64 in running buffer (1×HBS-EP+) was injected to Fc2 of channel 1-4 at a flow rate of 10 μL/min for 30 s. 6 concentrations (40, 20, 10, 5, 2.5 and 1.25 nM) of analyte Ab #C, Ab #G and running buffer were injected orderly to Fc1-Fc2 of channel 1-4 at a flow rate of 30 μL/min for an association phase of 180, followed by 400 dissociation. Repeat 6 cycles of capturing ligand and running analyte according to analyte concentrations in ascending order. 10 mM glycine pH 1.5 as regeneration buffer was injected following every dissociation phase. 2 μg/mL CD64 in running buffer (1×HBS-EP+) was injected to Fc2 of channel 1-6 at a flow rate of 10 μL/min for 30 s. […] Repeat 8 cycles of capturing ligand and running analyte according to analyte concentrations in ascending order. 10 mM glycine pH 1.5 as regeneration buffer was injected following every dissociation phase.
Surface channels Fc1 without capturing ligand was used as control surface for reference subtraction. Final data of each interaction was deducted from reference channel and buffer channel data. The experimental data of Ab #C, Ab #G binding to CD64 was fitted by 1:1 binding mode. The 10240 nM curves of analyte Ab #K, Ab #O, Ab #S were removed to allow a better fit.

CD64 [2] = molecular target: T4, CD64; assay: SPR Biacore 8K, CD64 captured by anti-His antibody, antibody as analyte, steady state affinity
Experimental: as §1, §4
Surface channels Fc1 without capturing ligand was used as control surface for reference subtraction. Final data of each interaction was deducted from reference channel and buffer channel data. […]

T4 sequence (P12314 16-288 limits assumed): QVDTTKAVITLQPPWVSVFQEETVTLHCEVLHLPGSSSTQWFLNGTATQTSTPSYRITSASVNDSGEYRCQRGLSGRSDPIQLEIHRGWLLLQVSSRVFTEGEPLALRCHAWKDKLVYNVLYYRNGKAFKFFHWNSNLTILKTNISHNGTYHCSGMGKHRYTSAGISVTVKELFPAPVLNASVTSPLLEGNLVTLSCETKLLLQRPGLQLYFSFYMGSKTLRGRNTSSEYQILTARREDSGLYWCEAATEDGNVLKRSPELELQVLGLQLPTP
Sequence of human FcRn (P55899 24-297 limits assumed, chain 1 of 2): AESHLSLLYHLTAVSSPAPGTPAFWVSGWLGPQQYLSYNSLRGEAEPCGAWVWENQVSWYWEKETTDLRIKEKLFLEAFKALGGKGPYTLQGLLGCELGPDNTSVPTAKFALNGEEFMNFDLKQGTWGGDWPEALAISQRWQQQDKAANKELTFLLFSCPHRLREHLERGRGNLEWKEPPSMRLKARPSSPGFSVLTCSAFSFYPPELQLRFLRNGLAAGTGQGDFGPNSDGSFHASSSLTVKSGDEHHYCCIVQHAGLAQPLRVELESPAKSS
Sequence of human FcRn (P61769 21-119 limits assumed, chain 2 of 2, further chain): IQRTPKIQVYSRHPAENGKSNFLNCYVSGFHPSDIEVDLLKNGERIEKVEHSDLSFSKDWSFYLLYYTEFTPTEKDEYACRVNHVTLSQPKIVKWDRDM
Sequence of C1q (P02745 23-245 limits assumed, chain 1 of 3): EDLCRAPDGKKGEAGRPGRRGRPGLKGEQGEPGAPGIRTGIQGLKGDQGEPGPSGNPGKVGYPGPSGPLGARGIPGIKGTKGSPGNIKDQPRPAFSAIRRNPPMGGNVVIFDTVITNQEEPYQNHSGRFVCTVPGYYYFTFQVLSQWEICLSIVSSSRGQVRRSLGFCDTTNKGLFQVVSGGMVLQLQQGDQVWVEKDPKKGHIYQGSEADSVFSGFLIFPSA
Sequence of C1q (P02746 28-253 limits assumed, chain 2 of 3, further chain): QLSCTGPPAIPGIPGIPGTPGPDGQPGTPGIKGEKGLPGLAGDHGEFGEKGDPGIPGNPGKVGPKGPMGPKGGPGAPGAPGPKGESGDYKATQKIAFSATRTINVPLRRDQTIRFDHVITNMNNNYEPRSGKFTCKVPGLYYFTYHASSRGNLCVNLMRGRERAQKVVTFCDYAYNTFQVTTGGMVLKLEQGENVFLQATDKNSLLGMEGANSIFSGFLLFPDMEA
Sequence of C1q (P02747 29-245 limits assumed, chain 3 of 3, further chain): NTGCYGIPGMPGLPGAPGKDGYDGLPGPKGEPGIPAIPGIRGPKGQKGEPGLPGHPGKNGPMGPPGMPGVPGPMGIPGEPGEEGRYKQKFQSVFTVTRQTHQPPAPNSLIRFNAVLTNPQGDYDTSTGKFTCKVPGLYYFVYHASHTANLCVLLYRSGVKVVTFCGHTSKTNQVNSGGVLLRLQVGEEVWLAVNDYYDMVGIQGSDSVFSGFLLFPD

| Binder | Kd (FcγRIIa) [nM] | Kd (FcγRIIb) [nM] | binding result (C1q) | Kd (human FcRn) [nM] | Kd (CD64 [1]) [nM] | koff (CD64 [1]) [s⁻¹] | kon (CD64 [1]) [M⁻¹ s⁻¹] | Kd (CD64 [2]) [nM] |
| --- | --- | --- | --- | --- | --- | --- | --- | --- |
| Ab#G (antibody, human IgG4 S228P, kappa, HCDR2 is printed with 'Na' (the NG to NA change)) heavy: EVQLVQSGAEVKKPGASVKVSCKASGYTFTSYYMYWVRQAPGQGLEWIGGINPSNAGTNFNEKFKNRATLTVDKSTSTAYMELSSLRSEDTAVYYCTREGNPYYTMNYWGQGTLVTVSSASTKGPSVFPLAPCSRSTSESTAALGCLVKDYFPEPVTVSWNSGALTSGVHTFPAVLQSSGLYSLSSVVTVPSSSLGTKTYTCNVDHKPSNTKVDKRV[… human IgG4 Fc with S228P (EU numbers) …] light: DIVMTQSPDSLAVSLGERATISCKSSQSLLNSGNQKTYLAWYQQKPGQPPKLLIYGASTRESGVPDRFSGSGSGTDFTLTISSLQAEDVAVYYCQNDHSYPFTFGQGTKLEIKRTVAAPSVFIFPPSDEQLKSGTASVVCLLNNFYPREAKVQWKVDNALQSGNSQESVTEQDSKDSTYSLSSTLTLSKADYEKHKVYACEVTHQGLSSPVTKSFNRGEC | 17900 | 13200 | no binding | 2390 | 4.65 | 0.00223 | 480000 | – |
| Ab#S (antibody, human IgG4 S228P, kappa, F234A L235A) heavy: EVQLVQSGAEVKKPGASVKVSCKASGYTFTSYYMYWVRQAPGQGLEWIGGINPSNAGTNFNEKFKNRATLTVDKSTSTAYMELSSLRSEDTAVYYCTREGNPYYTMNYWGQGTLVTVSSASTKGPSVFPLAPCSRSTSESTAALGCLVKDYFPEPVTVSWNSGALTSGVHTFPAVLQSSGLYSLSSVVTVPSSSLGTKTYTCNVDHKPSNTKVDKRV[… human IgG4 Fc with S228P F234A L235A (EU numbers) …] light: DIVMTQSPDSLAVSLGERATISCKSSQSLLNSGNQKTYLAWYQQKPGQPPKLLIYGASTRESGVPDRFSGSGSGTDFTLTISSLQAEDVAVYYCQNDHSYPFTFGQGTKLEIKRTVAAPSVFIFPPSDEQLKSGTASVVCLLNNFYPREAKVQWKVDNALQSGNSQESVTEQDSKDSTYSLSSTLTLSKADYEKHKVYACEVTHQGLSSPVTKSFNRGEC | – | – | no binding | 2430 | – | – | – | 2610 |
